This is an account of results in article PMC4336329 (PLoS ONE, 2015).

Each structure is given as a SMILES string. Among all 310,000 compounds or so, about 2,200 (0.71%) showed an effect of 50% or more. The effect is printed as a negative number. This is one part of the list.

The target of this assay is human ether-à-go-go-related gene (hERG) potassium channel (human, UniProt Q12809). As to the kind of experiment: primary screen, population patch clamp on CHO cells stably expressing hERG.
Chain of human ether-à-go-go-related gene (hERG) potassium channel (Q12809 whole entry, looked up): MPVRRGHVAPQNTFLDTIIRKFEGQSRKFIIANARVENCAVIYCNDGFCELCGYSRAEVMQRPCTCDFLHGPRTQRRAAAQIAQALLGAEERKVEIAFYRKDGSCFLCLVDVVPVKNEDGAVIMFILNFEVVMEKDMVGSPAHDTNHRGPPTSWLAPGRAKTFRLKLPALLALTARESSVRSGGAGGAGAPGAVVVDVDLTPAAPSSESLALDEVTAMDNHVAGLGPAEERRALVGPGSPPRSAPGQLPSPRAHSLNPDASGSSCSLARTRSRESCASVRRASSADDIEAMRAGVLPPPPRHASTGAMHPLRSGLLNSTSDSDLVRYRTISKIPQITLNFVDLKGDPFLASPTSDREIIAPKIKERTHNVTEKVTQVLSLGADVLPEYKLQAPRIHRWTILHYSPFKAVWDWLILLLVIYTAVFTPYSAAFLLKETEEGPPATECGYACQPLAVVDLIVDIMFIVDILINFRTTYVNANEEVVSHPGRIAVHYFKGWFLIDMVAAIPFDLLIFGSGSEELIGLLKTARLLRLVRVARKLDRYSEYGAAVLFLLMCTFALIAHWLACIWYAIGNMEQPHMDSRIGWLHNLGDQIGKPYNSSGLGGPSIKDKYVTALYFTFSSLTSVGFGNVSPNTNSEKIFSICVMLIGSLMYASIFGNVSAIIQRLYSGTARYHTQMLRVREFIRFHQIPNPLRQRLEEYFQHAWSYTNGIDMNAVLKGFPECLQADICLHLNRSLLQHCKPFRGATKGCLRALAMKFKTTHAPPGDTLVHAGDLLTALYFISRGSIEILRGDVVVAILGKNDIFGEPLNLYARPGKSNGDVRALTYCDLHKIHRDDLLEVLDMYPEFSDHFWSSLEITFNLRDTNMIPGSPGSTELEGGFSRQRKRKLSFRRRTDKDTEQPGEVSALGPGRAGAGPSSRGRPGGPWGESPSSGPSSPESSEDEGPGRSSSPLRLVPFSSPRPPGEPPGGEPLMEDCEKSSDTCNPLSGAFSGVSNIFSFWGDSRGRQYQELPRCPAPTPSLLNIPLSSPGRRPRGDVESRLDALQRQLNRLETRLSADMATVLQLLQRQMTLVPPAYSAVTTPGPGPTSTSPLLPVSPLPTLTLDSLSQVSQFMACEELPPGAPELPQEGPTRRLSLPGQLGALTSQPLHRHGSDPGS
Consider `Cc1ccc(C(=O)N/C(=C\Cl)P(=O)(c2ccccc2)c2ccccc2)cc1`, for which the “hERG current change (%, negative = inhibition) at 1uM” value is reported as 15.9%.
For `COc1ccc(NC(=O)c2ccco2)cc1NC(=O)c1c(F)c(F)c(OC)c(F)c1F`, the “hERG current change (%, negative = inhibition) at 1uM” value is 0.726%.
The figure for `c1cnc(-c2noc(CN3CCN(C4CCCC4)CC3)n2)cn1` is 11.7%; for `COc1cc(C(=O)NCc2nnc(SCC(=O)Nc3nccs3)o2)cc(OC)c1OC` it is 7.49%; for `CC(C)NC(=O)/C(C#N)=C/c1ccc2c(c1)OCCO2` it is 6.31%.
Turning to `O=C(OC1CCCCC1=O)c1cccc(S(=O)(=O)NCc2ccccc2)c1` (centres unmarked), the “hERG current change (%, negative = inhibition) at 1uM” value is on record as -1.88%.
Then `CS(=O)(=O)N1CCC(CO)(Cc2ccccc2C(F)(F)F)CC1`, with 6.98%.
Regarding `Cc1cccc2cc(COC(=O)C3CCCCC3)c(=O)[nH]c12`, the “hERG current change (%, negative = inhibition) at 1uM” value is 16.5%.
The figure for `Oc1ccc2ccccc2c1C=NCc1cn2ccsc2n1` is 9.39%; for `Oc1cncc(Cc2ccccc2)c1` it is 18.8%.
Take `CCOC(=O)c1cc(CC)sc1/N=C/C1C(=O)CC(C)(C)CC1=O`: the “hERG current change (%, negative = inhibition) at 1uM” value worked out at 17.4%.
On to `O=C(Cc1ccccc1)N1CCN(C2CCCC2)CC1`, for which the “hERG current change (%, negative = inhibition) at 1uM” value is 7.17%.
Then `O=C(CCN1CCc2ccccc2C1)Nc1ccc2c(c1)OCO2`, with 0.913%; and `Cc1cc(C)nc(NC(=O)/C=C/c2ccc(Cl)cc2Cl)c1`, with 9.93%.
Regarding `CCCCN1CNC(=S)N(c2cc(C)ccc2C)C1`, the “hERG current change (%, negative = inhibition) at 1uM” value is recorded as 7.21%.
As to `O=CNn1cnc2c(oc3nc(-c4ccccc4)cc(-c4ccco4)c32)c1=O`, the “hERG current change (%, negative = inhibition) at 1uM” value is recorded as 12.5%.
The figure for `COc1ccc(CNC(=O)COC(=O)c2c(-c3c(F)cccc3Cl)noc2C)cc1OC` is -2.97%; for `Cc1ccc(-c2cc(C(=O)NCCCN3CCOCC3)c3ccc(Cl)c(C)c3n2)cc1` it is 1.2%.
The figure for `Cn1c(SCC(=O)N2CCCC2)nnc1-c1cnccn1` is 1.48%; for `CC(C)(CC(=O)O)CC(=O)Nc1ccc(Oc2ccc(C(C)(C)C)cc2)nc1` it is 10.5%; for `Cc1ccccc1N=Nc1c(O)n(C)c2ccccc12` it is 4.59%.
Then `COc1cc(-c2nnc3n(CCc4ccccc4)c(=O)c4ccccc4n23)cc(OC)c1OC`, with -0.301%.
`Cc1cc(-c2nnc(SCC(=O)Nc3ccccc3C)n2N)n[nH]1`: the “hERG current change (%, negative = inhibition) at 1uM” value was -3.03%.
The figure for `Cc1cccc(NC(=O)C2CC2c2ccccc2)c1C` (centres unmarked) is 12.1%; for `CN(c1ccc(OCc2ccc([N+](=O)[O-])cc2)cc1)S(=O)(=O)c1ccccc1` it is 1.74%; for `CCOC(=O)c1c(S(=O)(=O)N2CCCCCC2)c(C)n(C)c1C` it is -0.322%.
The figure for `N#CCCn1c(Cl)nc2ccccc21` is 5.03%; for `Cc1cc(NC(=O)C2CC(c3cccc(Br)c3)=NO2)no1` (centres unmarked) it is -4.71%.
Then `CCOC(=O)N1CCN(C(=O)CSc2nnc(-c3ccc(C)c(C)c3)o2)CC1`, with -3.33%.
As for `Cc1cc(S(=O)(=O)N2CCOCC2)ccc1NC(=O)c1ccc(F)cc1`, the “hERG current change (%, negative = inhibition) at 1uM” value was 13.8%.
Then `O=C(NCc1cccs1)C1CCCN(c2ncccn2)C1` (centres unmarked), with 3.61%; and `Cc1ccc(CN(C(=O)c2cccs2)C2CCS(=O)(=O)C2)cc1` (centres unmarked), with -8.68%.
The figure for `CCN(CC)c1ccc2cc(-c3nc4ccccc4n3C)c(=O)oc2c1` is 12%; for `S=c1[nH]nc(-c2ccco2)n1/N=C/c1cccc(Cl)c1` it is 13.8%.
The figure for `CC1CC(=S)Nc2ccccc2N1C(=O)Nc1ccccc1` (centres unmarked) is 8.73%; for `O=C(Nc1nc(-c2nc3ccccc3s2)cs1)c1ccco1` it is 8.54%.
In the case of `C[C@H](NC(=O)C1CCN(C(=O)[C@H](Cc2ccccc2)NC(=O)OC(C)(C)C)CC1)C(=O)O`, the “hERG current change (%, negative = inhibition) at 1uM” value is given as 5.32%.
Turning to `Nc1nc2n(n1)C(c1ccccc1)CC(c1ccc(F)cc1)N2` (centres unmarked), the “hERG current change (%, negative = inhibition) at 1uM” value is given as -2.09%.
The figure for `CCOC(=O)C(C)Sc1cc(CS(=O)(=O)c2ccccc2)nc(-c2ccccc2)n1` (centres unmarked) is 19.7%; for `COc1cc(C(=O)Nc2cc(-c3nc4cc(C)ccc4o3)ccc2C)cc(OC)c1OC` it is 14%.
The figure for `CC(C)C(=O)N1CCC2(CC1)Oc1ccc(F)cc1C(=O)C21CC(c2ccccc2)=NO1` (centres unmarked) is 15.7%; for `O=C(NC1CC1)C1=C[C@H](c2ccc3c(c2)OCO3)C[C@H](OCc2ccc(CO)cc2)O1` it is 5.59%.
The figure for `COCCNC(=O)c1cccc(C)c1[N+](=O)[O-]` is 7.56%; for `O=C(CCCOc1ccccc1)N1CCCc2ccccc21` it is 4.28%; for `O=C(NCCCn1ccnc1)c1cc2ccccc2o1` it is 2.15%.
With `CC1CC(OCC(O)CN2CCN(Cc3ccccc3)CC2)CC(C)(C)C1.Cl` (centres unmarked), the “hERG current change (%, negative = inhibition) at 1uM” value is reported as -7.49%.
The figure for `CNC(=S)N(CCc1c(C)[nH]c2ccc(OC)cc12)Cc1cccnc1` is 8.56%.
`O=C(CSCc1ccccc1)N1CCN(S(=O)(=O)c2ccc(F)cc2)CC1`: the “hERG current change (%, negative = inhibition) at 1uM” value is 13.4%.
The figure for `Cc1nn(-c2ccccc2)c(N2CCCC2)c1/C=N/n1cnc2scc(-c3ccccc3)c2c1=O` is -5.57%; for `COc1cccc(C(=O)C2=NN(C(C)=O)CC2c2ccco2)c1` (centres unmarked) it is 9.67%.
As to `Cc1ccc(NC2CCCN(C(=O)c3ccc(C)c(N4CCNC4=O)c3)C2)cc1C` (centres unmarked), the “hERG current change (%, negative = inhibition) at 1uM” value is given as 8.39%.
With `Cc1ccc(N2CCN(S(=O)(=O)c3nnc(NC(=O)c4ccco4)s3)CC2)cc1`, the “hERG current change (%, negative = inhibition) at 1uM” value is given as 14.8%.
Then `Cc1cc(NC2CCCCC2)nc2ccccc12`, with -2.4%.
On to `CCCCOc1cccc(NC(=O)CSc2nccn2C)c1`, for which the “hERG current change (%, negative = inhibition) at 1uM” value is given as -6.6%.
On to `CSc1ccc(NC(=O)Nc2cccn(Cc3ccccc3)c2=O)cc1`, for which the “hERG current change (%, negative = inhibition) at 1uM” value was 8.6%.
Then `CNC(=O)CSc1nc2c(c(=O)n(C)c(=O)n2C)n1Cc1ccc(C)cc1`, with -8.8%; and `COc1ccccc1C(=O)Nc1ccc2c(c1)nc1n2CCN(C2CCCCC2)C1`, with 0.823%.
The figure for `COc1ccc(OC)c(NC(=O)c2cc3c(Cl)nc4ccccc4c3s2)c1` is 10.1%; for `CCOC(=O)C1CCN(C(=O)c2c(-c3c(Cl)cccc3Cl)noc2C)CC1` it is 0.511%.
As for `OC1CCC(NC(=S)Nc2ccc(SC(F)F)cc2)CC1` (centres unmarked), the “hERG current change (%, negative = inhibition) at 1uM” value came out at 6.06%.
Then `C[C@@H]1OC(Nc2ccc(N=Nc3ccccc3)cc2)[C@H](O)[C@H](O)[C@H]1O` (some centres unmarked), with 18.2%.
For `CC1CCN(c2ccc([N+](=O)[O-])cn2)CC1`, the “hERG current change (%, negative = inhibition) at 1uM” value is recorded as 15.7%.
Take `C[C@@H](NC(=O)c1nc[nH]c1C(=O)N[C@@H](CCCCNC(=O)OC(C)(C)C)C(=O)OC(C)(C)C)c1ccccc1`: the “hERG current change (%, negative = inhibition) at 1uM” value is 10.9%.
Then `CCCCN(CC(=O)NCCOC)C(=O)Cn1nnc2ccccc21`, with 9.36%; and `CCc1ccc(C2C(C#N)=C(N)C(C#N)(C#N)C3=CCC(C(C)(C)C)CC32)cc1` (centres unmarked), with 12.7%; and `CCOc1ccc(C(=O)NC2CC(C)(C)NC(C)(C)C2)cc1.Cl`, with 10.1%.
Then `CC(=O)c1ccc(NC(=O)CNC2CCCCC2)cc1.Cl`, with 10.3%; and `Cc1ccc(NC(=S)NCCN2CCOCC2)cc1F`, with 3.11%.
Turning to `COc1ccccc1NC(=O)CCc1nnc2ccc(N3CCC4(CC3)OCCO4)nn12`, the “hERG current change (%, negative = inhibition) at 1uM” value was found to be 8.79%.
Then `O=C(O)c1cnc(-c2ccccc2)nc1Sc1ccc(Cl)cc1`, with 6.55%; and `CCOP(=O)(OCC)C(NC(C)=O)C(Cl)(Cl)Cl` (centres unmarked), with 19.2%.
Regarding `COC(=O)c1cc(NC(=O)CC2SCCNC2=O)cc(C(=O)OC)c1` (centres unmarked), the “hERG current change (%, negative = inhibition) at 1uM” value amounted to 15.1%.
The figure for `CC1CC(c2ccccc2)n2nc(NC(=O)CCc3ccccc3)nc2N1` (centres unmarked) is -1.41%; for `O=c1oc2ccccc2c(N2CCCCC2)c1[N+](=O)[O-]` it is 2%.
The figure for `CC(OC(=O)CCN=C1NS(=O)(=O)c2ccccc21)C(=O)c1ccccc1` (centres unmarked) is 16.7%.
Turning to `CCN1CCc2c(C#N)c(N3CCOCC3)nc(NCCO)c2C1`, the “hERG current change (%, negative = inhibition) at 1uM” value is reported as 11.2%.
In the case of `NC(=O)c1ccccc1NC(=O)c1cc(S(=O)(=O)N2CCCCC2)ccc1N1CCOCC1`, the “hERG current change (%, negative = inhibition) at 1uM” value is -60.5%.
Consider `CCCOC(=O)c1ccc(-c2c(C)noc2-c2ccc(OC)cc2O)o1`, for which the “hERG current change (%, negative = inhibition) at 1uM” value was found to be 14.1%.
Then `O=C(Nc1ccccc1)C1=C[C@H](c2csc3ccccc23)C[C@H](OCc2ccc(CO)cc2)O1`, with 8.87%; and `CC(OC(=O)CCN=C1NS(=O)(=O)c2ccccc21)C(=O)N(C)c1ccccc1` (centres unmarked), with 3.91%; and `O=C1CCCc2ccccc2N1Cc1cccc(F)c1`, with 6.59%.
For `CCC(CC)c1nnc(NC(=O)c2cc([N+](=O)[O-])ccc2N2CCCCC2)s1`, the “hERG current change (%, negative = inhibition) at 1uM” value is 11.2%.
The figure for `Oc1ccc(Br)cc1CNc1ccccn1` is -0.815%; for `COC(=O)c1ccc(OC)c(CN2CCCN(Cc3ccc(F)cc3)S2(=O)=O)c1` it is 3.67%; for `Cc1c(-c2ccc(F)cc2)nc(N)c(C#N)c1-c1ccco1` it is 0.307%.
Then `COc1cc(-c2cc(C(=O)NN3CCN(C)CC3)c3ccccc3n2)cc(OC)c1OC`, with 0.759%; and `CSc1ncc(Sc2ccccc2)c(C(=O)O)n1`, with 10.3%; and `CCS(=O)(=O)c1ccc(N)cc1.Cl`, with 17.2%.
Then `CC(C)C1Cc2[nH]c(=O)c(C(=O)O)cc2CO1` (centres unmarked), with 3.48%.
